The whole screen tested about 46,000 compounds, of which about 60 (0.1%) were called active. About 3% were inconclusive and are not listed. Calls follow the shape of the dose curve; as a rule, active = well fitted inhibition curve with a large enough effect; inconclusive = small, poorly fitted or top-dose-only effect; inactive = no such curve, though single readings can be large or run the other way. The list shows a part of the results.
Assay: Primary qHTS assay for Inhibitors of ovarian cancer metastasis using an organotypic tumor microenvironment (TME) model. Also: nearly all actives have a fitted effect of over 65% in size.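 As to activity change, negative = inhibition: plate controls were DMSO wells for no effect and tomatine positive control wells for full effect.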
Details: SKOV3ip1-GFP adhesion/invasion on 3D omental model, fluorescence; series mostly up to 45.8 µM; activity change, negative = inhibition: at the top concentration
In short: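 qHTS, 4-pt dose (0.36-46 umol/L); SKOV3ip1-GFP, 1,200 cells/well, no FBS; primary omental fibroblast/mesothelial co-culture 48 h pre-grown; 2 h RT + 16 h 37 C; PBS wash, 4% PFA; GFP count 488/509 nm.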

outcome, inactive:
O=C(NCCCN1CCN(c2ccccc2)CC1)c1sc2ncccc2c1-n1cccc1
O=C(NCCc1nc2ccccc2n1Cc1ccccc1F)c1ccc(F)cc1
Cc1c(Cl)cccc1NC(=O)CCS(=O)(=O)c1ccc2c(c1)CC(C)N2C(=O)C1CC1 (stereo unspecified)
Cc1cccc(N2CCN(C(=O)C3CCN(C(=O)c4cc5sccc5n4C)CC3)CC2C)c1 (stereo unspecified)
CCOc1ccc2nc(Cl)c(C3CC(c4ccc(C)cc4)=NN3C(=O)CCC(=O)O)cc2c1 (stereo unspecified)
COc1ccc(CN(C)c2ccc(-c3nc(-c4ccc(OC)c(OC)c4)no3)cc2[N+](=O)[O-])cc1
COc1cccc(-c2nnc(SCC(=O)N(C)C3CCCCC3)o2)c1
Cc1ccc2c(c1)c1c(c(=O)n(Cc3ccccc3)c(=O)n1Cc1ccccc1F)n2C
CNC(=O)CN1C(=O)COc2ccc(S(=O)(=O)N3CCCCCC3)cc21
CCCCN(C)C(=O)c1ccc2c(=O)n3nc(Nc4cc(C)ccc4C)sc3nc2c1
Cc1c(Cl)cccc1NC(=O)C(=O)NCCc1csc(-c2ccc(C(F)(F)F)cc2)n1
O=C(CNC(=O)c1ccc(F)cc1)OCc1cc(=O)n2ccsc2n1
Cc1cc(C)c(OCC(=O)N(Cc2ccc(N(C)C)cc2)Cc2ccco2)c(C)c1
Cc1cc(C)cc(NC(=O)COc2cccc3c(=O)n(C)ccc23)c1
Cc1ccc(Cn2nc3n(c2=O)-c2cc(Cl)ccc2OC3)cc1
COC(=O)c1ccccc1NC(=O)Cn1c(=O)n(CCC(=O)NCc2ccc3c(c2)OCO3)c(=O)c2ccccc21
Cn1ccnc1SCC(=O)Nc1cccc(Br)c1
COc1ccc(-c2nc3ccccc3o2)cc1NC(=O)Cc1ccc(Cl)cc1
CCn1c(SCC(=O)Nc2cc(C)ccc2F)nnc1-c1ccccc1O
COc1ccc(N2CC(NC(=O)C3CCCCC3)CC2=O)cc1 (stereo unspecified)

Activity change, negative = inhibition, inactive:
COc1ccc(C(=O)c2cn(Cc3ccccc3)c3ccccc3c2=O)cc1OC -3.11%
CN1C(C(=O)Nc2cccc(O)c2)=CC(c2cccs2)=NS1(=O)=O -12.9%
Nc1ncc(S(=O)(=O)NCc2ccccc2)cn1 -11.2%
COc1cc(S(=O)(=O)NCCc2c(C)[nH]c3ccc(C)cc23)ccc1Br 7.89%
COc1ccc(N(C(=O)c2ccccc2C)S(=O)(=O)c2ccc(Cl)cc2)cc1 -9.1%
CCOc1ccc(CCNC(=O)Cn2c(-c3cccs3)cc3ccccc32)cc1 3.03%
CCOc1ccc(NC(=O)CN(Cc2ccccc2)S(=O)(=O)c2ccc3nc(C)sc3c2)cc1 -19.1%
CN1C(=O)c2cccc3c(S(=O)(=O)Nc4cccc(C(=O)O)c4)ccc1c23 2.11%
CN1CCc2nc3sc(C(=O)c4ccc(F)cc4)c(N)c3cc2C1 -8.87%
CCOc1ccccc1CNCc1c(C(=O)O)c(C)n(Cc2ccc(C)cc2)c1C 7.06%
CCC(C)S(=O)(=O)c1oc(-c2cccs2)nc1S(=O)(=O)c1ccccc1 (stereo unspecified) -19.5%
COc1cn(CC(=O)Nc2cc(C)cc(C)c2)c(CN2CCCCC2)cc1=O -3.45%
CCOc1ccc(N2CC(NC(=O)c3ccc(Cl)cc3)CC2=O)cc1 (stereo unspecified) -2.94%
Cc1cccc(NC(=O)c2oc3ccccc3c2NC(=O)c2cc(=O)c3ccccc3o2)c1 0.634%
CCN(CC)S(=O)(=O)c1ccc(OC)c(NC(=O)c2sc3ccccc3c2Cl)c1 -1.04%
CN(c1ccc(F)cc1)S(=O)(=O)N1CCCC(C(=O)NCc2ccccc2Cl)C1 (stereo unspecified) -2.38%
Nc1ccc(C(=O)c2cc3c(ccc4ccccc43)[nH]2)cc1 -10.1%
CCOC(=O)N1CCc2c(sc3c2c(=O)n(Cc2ccccc2)c(=O)n3CC(=O)Nc2ccc(F)cc2)C1 -6.54%
O=S1(=O)c2ccccc2N(Cc2ccccc2F)c2ccccc21 2.93%
Cc1ccccc1Cn1c(CN2CCC(C(=O)NCc3ccc(Cl)cc3)CC2)cc2ccccc21 8.72%
CCN1CCc2c(sc(NC(=O)c3ccc(S(=O)(=O)N4CCCC(C)C4)cc3)c2C(=O)OC)C1 (stereo unspecified) -3.7%
COc1ccc(C(=O)Nc2ccc3oc(-c4cccc5c(Br)cccc45)nc3c2)cc1 -0.237%
CCOc1ccc(NS(=O)(=O)c2ccc3c(c2)NC(=O)CCS3)cc1 2.19%
O=C(NCc1ccc2c(c1)OCO2)c1ccc2c(c1)N(Cc1c(F)cccc1Cl)C(=O)c1ccccc1S2 2.64%
COc1ccc(CCNC(=O)c2ccc(-n3c(C)cc4c3CCC(C)C4)cc2)cc1OC (stereo unspecified) 1.51%
Cc1ccc(-c2csc(-c3c(N)c(C(=O)c4ccc5c(c4)OCO5)n4ccccc34)n2)cc1 -4.78%
COc1ccc(-n2c(-c3cccc(F)c3)nc3c(cnn3-c3ccc(C)cc3)c2=O)cc1 -2.83%
Cc1ccc(-c2cn3nc(N4CCCC(C(=O)NCc5ccccc5F)C4)sc3n2)cc1 (stereo unspecified) -9.87%
COc1ccc(C(=O)c2cn(CC(=O)Nc3cc(OC)cc(OC)c3)c3ccc(OC)cc3c2=O)cc1 -6.5%
COc1cccc(N2C(=O)C(CC(=O)Nc3cccc(F)c3)N(C3CCCC3)C2=O)c1 (stereo unspecified) 0.716%
Cc1cccc(N(C)C(=O)Cn2c(=O)oc3cc(S(=O)(=O)N4CCCCC4)ccc32)c1 2.87%
CCOC(=O)c1c(S(=O)(=O)N2CCC(C(=O)NCc3cccc(OC)c3)CC2)c(C)n(C)c1C 4.19%
CCN(c1ccc(OC)cc1)S(=O)(=O)c1ccc2[nH]c3c(c2c1)CCCCC3 -0.291%
Clc1ccc(C(Cn2ccnc2)OCc2c(Cl)cccc2Cl)c(Cl)c1 (stereo unspecified) -3.95%
COc1ccc(C2CC(=O)c3cc(-c4nc(-c5cccc([N+](=O)[O-])c5)cs4)c(=O)n(-c4ccccc4N)c3C2)cc1 (stereo unspecified) 2.47%
Cc1ccc(CNC(=O)c2ccc3c(c2)CCN3S(=O)(=O)c2ccc(Br)cc2)cc1 9.6%
NC(=O)c1cc(S(=O)(=O)NCc2cccc(Br)c2)cs1 -9.02%
Cc1nc2ccn(Cc3ccco3)c(=O)c2cc1C(=O)NCc1ccc(Cl)cc1 -6.92%
COC(=O)c1ccc(NC(=O)Cn2c(=O)oc3ccccc32)cc1 -6.81%
CCCOc1ccc(C2c3c(oc4ccccc4c3=O)C(=O)N2c2nnc(C(C)C)s2)cc1 (stereo unspecified) 6.51%
COc1ccccc1CNC(=O)c1ccc(N2CCCC2)c(NC(=O)NCc2ccc(C)cc2)c1 -17.2%

— PubChem BioAssay AID1963576 (National Center for Advancing Translational Sciences (NCATS), 2024)
